The other results are listed elsewhere or left out.
B1: chr1:109605286:109605287:-_ENSG00000197780_ENST00000461096|hu_mus|hu_hu_hu_mus_True|18_28 (ssRNA)
RNA: GGGAGUUCUACAGUCCGACGAUCAAGUUUCAGAGUAACAUUCAGUAACCUCUUUAAAUGCAAUUAUCCUUAUUAUAAGCUAAGCAGAAUAAUAAUUUAAUACCGUAAGUAAAUACACACAAAACCUUGAACCGCGAAAAUGGUCAACAGAGGAUUGAGCAUCA
B2: chr5:151611259:151611260:+_ENSMUSG00000034021_ENSMUST00000016569|mus_hu|motif|central (ssRNA)
RNA: GGGAGUUCUACAGUCCGACGAUCCAUUUUCUGAACAUAACGUUCAAGAGGAAAUAUCUAUACACAAUAACAUUCGGGACGGUUAAAAACUCAUUCAAAUUACAGAAUUUUAUUGAUACAGUAGAUUAAUAAAAACUGAAAGGACAACAGAGGAUUGAGCAUCA
B3: chr2:128501614:128501615:-_ENSMUSG00000014355_ENSMUST00000014499|mus_hu|FALSE|FALSE (ssRNA)
RNA: GGGAGUUCUACAGUCCGACGAUCAGUCACAGGGGAAUCUCCUUUGGAGAGGCUUCUGAGAUGUGCUGUGAGGGAGCUGCUAGUGGCCACAUUCUGUGGGGUUCCCCCCUGUUCAGAGAACUUUAAAACAACAUUCUCUUCCUCCAACAGAGGAUUGAGCAUCA
B4: chr8:26196428:26196429:+_ENSG00000221914_ENST00000315985|hu_hu|motif|central (ssRNA)
RNA: GGGAGUUCUACAGUCCGACGAUCUUUGUUCUCCUGCUCCUGUUGAAAGAUGACAACUCUACCACCUUUAUCUCCUGUUGCGGGUAAUUCUCCAGAAUGAUUAAAUUCUACUGUAGAAAUUAUAUCUGCUUCUGCUACAUCAUCCAACAGAGGAUUGAGCAUCA
B5: chr14:63765801:63765802:-_ENSMUSG00000021273_ENSMUST00000054963|mus_hu|FALSE|FALSE (ssRNA)
RNA: GGGAGUUCUACAGUCCGACGAUCCUGCCUUGUUUUGCUAGAAGAUGGGUCUGAGUCGGGGAUUCUAUGAUAAAUCUCUUCCAUAUACUGAUAUAUGAUGGCUUUGACAGCUGGCAUAUUGGUGGCAUCCAUCAUCAGGGUCACCAACAGAGGAUUGAGCAUCA
B6: chr17:32491106:32491107:-_ENSMUSG00000024050_ENSMUST00000163107|mus_mus|motif|central (ssRNA)
RNA: GGGAGUUCUACAGUCCGACGAUCCAUUGAUAACCAAAAGGUGGCCACUGAAAAGGUUAAAAGGUCAAUUAGCUCCCGGUAUCGGGCUGGCCCAGGAUUGCAAAAUAAAAAGAUCCACGUUCCUUAUUCUCUACACAAAACGCACAACAGAGGAUUGAGCAUCA
B7: chr3:10015032:10015033:+_ENSMUSG00000027533_ENSMUST00000029046|mus_mus|mus_mus_mus_hu_True|1_48 (ssRNA)
RNA: GGGAGUUCUACAGUCCGACGAUCGUUUUUACCAUCACAAGUGAUGAUACAAUCUGGCUUGGCCAUUGCGCCCAUUUUUCGCAAAGCCAGUCCUACUCCUAGCUCCUUCAUGUAUUCAUCAAAGCCUUUGCUGUCCAUCAGGCGCAACAGAGGAUUGAGCAUCA
B8: chr2:224824363:224824364:+_ENSG00000135900_ENST00000258383|hu_hu|FALSE|FALSE (ssRNA)
RNA: GGGAGUUCUACAGUCCGACGAUCAGCUUCUUUCUCUAUCCCAAGUUGUUGGCGUUUGGCCUCCUCACUUUUAAUAUAGCAGCUAUUAACAAAUGCAGUUUUGAGAAGAUCUAAGGAAAAGUUUUCCUGUAACCGAUGUCCAAACAACAGAGGAUUGAGCAUCA
B9: 97010558_97014216_1642_CDS_ENSG00000090060_ENST00000216277|human|control|control (ssRNA)
RNA: GGGAGUUCUACAGUCCGACGAUCAUGGAGUUGCUUUCUUUUUACAUGCAUUGCAGCAAUUUUCAUAUCCACCUCAAACAUCUUGCUGUUUAUUGCUUGCCUAUAAACUGUAUCUGUGAAAGACUGAAUAUCAUAGGUGAGAUCCAACAGAGGAUUGAGCAUCA
B10: chr1:109605286:109605287:-_ENSG00000197780_ENST00000461096|hu_mus|hu_hu_hu_mus_True|38_78 (ssRNA)
RNA: GGGAGUUCUACAGUCCGACGAUCAAGUUUCAGAGUAACAUUCAGUAACCUCUUUAACAAUUGUAAUCCUUAUUAUAAGCUAAGCAGAAUAAUAAUUUAAUACAUAGAGUGAACUACACACAAAGCCUGAACCGCGAAAAUGGUCAACAGAGGAUUGAGCAUCA
B11: chrX:70775091:70775092:+_ENSG00000147162_ENST00000373719|hu_hu|motif|central (ssRNA)
RNA: GGGAGUUCUACAGUCCGACGAUCAUCAGGGAAAUGUGGUUGUAGUUCGAUAGCCCGCCUGUAGGUGUCUAUUGCCAGAUCGGUCAGGCCUUGCUCAUAGUAUACACAAGCCAGGUUGCCGUGCACCACUGCGUGAUUUGGACUCAACAGAGGAUUGAGCAUCA
B12: chrX:43605437:43605438:+_ENSG00000189221_ENST00000338702|hu_hu|motif|central (ssRNA)
RNA: GGGAGUUCUACAGUCCGACGAUCAAGAAGUUUAAAUCAGCAUUUCCCAAAAGGUGUGUCAGGACUGAGUUAAUCAGUAAGCGGAUAGAAACAACUGCAAUAGACUAGGGAUGAGAUUUCUCAAAGCAGUCUGAUAUAAUAUGCCAACAGAGGAUUGAGCAUCA
B13: chr9:3385818:3385819:+_ENSMUSG00000025899_ENSMUST00000053407|mus_mus|motif|central (ssRNA)
RNA: GGGAGUUCUACAGUCCGACGAUCCCUACAAAAGUUGGAGUUAUAAAAAGAUUUUAACACAAAAGUUUAUCUUCAAAUGCGGUAUAUAUACAAACAUCACAGACUUUUCACAAGUUAAUGUCAAACACCAUACUUAAAAGGCAUCAACAGAGGAUUGAGCAUCA
B14: chr11:93987321:93987322:+_ENSMUSG00000020859_ENSMUST00000103168|mus_hu|FALSE|FALSE (ssRNA)
RNA: GGGAGUUCUACAGUCCGACGAUCUACAAAGUUACAUUCUGAACCCCAGGGAUUCCAUAAUAGAAAUAAAUACUGAAAUAACUACAUUGCUAAAUGAGCUCUUUGCUCAUAGAAAUGAAGCUCAGCCUCUAAGAGACAGCAAGUCAACAGAGGAUUGAGCAUCA

These binders were tested against T1, UNK ZnF1-3 (human, UniProt Q9C0B0 31-174) (assay: nsRBNS (natural sequence RNA bind-n-seq); RBNS binding buffer (assumed for nsRBNS): 25 mM Tris pH 7.5, 150 mM KCl, 3 mM MgCl2, 0.01% Triton X-100, 500 ug/ml BSA, 20 U/ml SUPERase-In, 4 C; UNK is unkempt and MSI1 is Musashi-1; names of the RNAs are library labels; protein concentration not given here; high values mean tight binding).
T1 sequence: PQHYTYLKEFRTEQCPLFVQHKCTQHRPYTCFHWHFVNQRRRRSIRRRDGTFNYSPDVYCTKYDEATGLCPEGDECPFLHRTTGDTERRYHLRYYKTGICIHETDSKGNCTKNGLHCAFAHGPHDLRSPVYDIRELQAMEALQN
In the case of B1, the binding signal is reported as 0.893 enrichment R.
In the case of B2, the binding signal is reported as 1.69 enrichment R.
For B3, the binding signal was 1.17 enrichment R.
B4 was tested, and the binding signal was 0.892 enrichment R.
B5 was tested, and the binding signal was 0.938 enrichment R.
In the case of B6, the binding signal is reported as 1.24 enrichment R.
With B7 the binding signal was 0.665 enrichment R.
For B8, the binding signal was 0.985 enrichment R.
Binder B9 has a binding signal of 0.647 enrichment R.
B10 gave a binding signal of 0.85 enrichment R.
With B11 the binding signal was 0.641 enrichment R.
For B12, the binding signal was 1.84 enrichment R.
Work on B13 yielded a binding signal of 0.797 enrichment R.
Work on B14 yielded a binding signal of 1.24 enrichment R.

— PMC12136788
